Experiment: soluble on expression in E. coli; label from the status in PepcDB or PDB records

For “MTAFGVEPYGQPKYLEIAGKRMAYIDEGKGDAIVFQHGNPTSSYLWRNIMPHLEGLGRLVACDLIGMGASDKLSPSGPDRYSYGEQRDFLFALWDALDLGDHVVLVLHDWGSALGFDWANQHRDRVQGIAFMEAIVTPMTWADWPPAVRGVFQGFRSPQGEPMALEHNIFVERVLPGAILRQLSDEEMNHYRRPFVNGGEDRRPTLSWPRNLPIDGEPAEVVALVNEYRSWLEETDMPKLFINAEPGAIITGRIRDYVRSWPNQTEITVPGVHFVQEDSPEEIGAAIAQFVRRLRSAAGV”, the “soluble on expression in E. coli” value was “soluble”.
